From the BET-seq Pho4 binding data (Le et al. 2018)
This is one part of the list. These are noisy estimates, calculated here from bound and input reads.

The sequences below were run against T1, Pho4 (S. cerevisiae) (UniProt P07270) (assay: relative binding free energy (BET-seq); higher = weaker binding). Settings: reference: library average.
T1 sequence: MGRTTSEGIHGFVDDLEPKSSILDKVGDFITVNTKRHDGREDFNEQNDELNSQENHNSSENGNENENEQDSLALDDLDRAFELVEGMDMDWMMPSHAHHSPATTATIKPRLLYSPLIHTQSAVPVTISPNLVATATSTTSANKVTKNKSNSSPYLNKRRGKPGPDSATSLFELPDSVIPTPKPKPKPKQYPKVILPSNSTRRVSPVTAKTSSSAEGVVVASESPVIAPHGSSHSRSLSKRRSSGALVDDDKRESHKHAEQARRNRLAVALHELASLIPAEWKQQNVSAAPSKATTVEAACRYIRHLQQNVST
For GTTAGCACGTGTCTAT, the “relative binding free energy” value was 0.08 kcal/mol. GGTAGCACGTGTGATG was tested, and the “relative binding free energy” value was 0.15 kcal/mol. GGCTGCACGTGGTTTA was tested, and the “relative binding free energy” value was -0.1 kcal/mol. In the case of AATTTCACGTGTTGTC, the “relative binding free energy” value is reported as 0.3 kcal/mol. In the case of GTATTCACGTGTAAGT, the “relative binding free energy” value is reported as 0.25 kcal/mol. AATGACACGTGGGATG was tested, and the “relative binding free energy” value was 0.04 kcal/mol. For TGTGGCACGTGTGCGA, the “relative binding free energy” value was -0.08 kcal/mol. TGAATCACGTGAGCGT was tested, and the “relative binding free energy” value was 0.32 kcal/mol. With GGGATCACGTGGTAGA the “relative binding free energy” value was 0.24 kcal/mol. In the case of GGAGACACGTGGGGTT, the “relative binding free energy” value is reported as -0.13 kcal/mol. TATGCCACGTGGGAGG was tested, and the “relative binding free energy” value was -0.22 kcal/mol. For TGAGGCACGTGAAGGG, the “relative binding free energy” value was 0.11 kcal/mol. For TTTGACACGTGGGCTG, the “relative binding free energy” value was -0.06 kcal/mol. For TTGATCACGTGGGCTT, the “relative binding free energy” value was -0.03 kcal/mol. With GGTATCACGTGGCTTT the “relative binding free energy” value was 0.15 kcal/mol. For TTTAGCACGTGGGCGT, the “relative binding free energy” value was -0.2 kcal/mol. TCGTGCACGTGTAGGT was tested, and the “relative binding free energy” value was -0.01 kcal/mol. GGAACCACGTGGAGGG was tested, and the “relative binding free energy” value was -0.1 kcal/mol. With CTGAGCACGTGAAGGG the “relative binding free energy” value was 0.23 kcal/mol. In the case of AGGTGCACGTGTGAGC, the “relative binding free energy” value is reported as 0.07 kcal/mol. In the case of GGAGTCACGTGTGGAC, the “relative binding free energy” value is reported as 0.19 kcal/mol. In the case of AGATACACGTGGGGAA, the “relative binding free energy” value is reported as -0.18 kcal/mol. With ATATTCACGTGTGGCG the “relative binding free energy” value was 0.17 kcal/mol. ATGGTCACGTGCGGGA was tested, and the “relative binding free energy” value was -0.07 kcal/mol. AGGTGCACGTGGACTG was tested, and the “relative binding free energy” value was -0.05 kcal/mol. ATCGACACGTGTGGGG was tested, and the “relative binding free energy” value was 0.05 kcal/mol. CTGGACACGTGTCGGT was tested, and the “relative binding free energy” value was -0.02 kcal/mol. GAGGTCACGTGGTGGC was tested, and the “relative binding free energy” value was 0.2 kcal/mol. In the case of AGTTTCACGTGGTATC, the “relative binding free energy” value is reported as 0.19 kcal/mol. In the case of AAGGGCACGTGCAGTA, the “relative binding free energy” value is reported as -0.18 kcal/mol. TTAGTCACGTGATAAA was tested, and the “relative binding free energy” value was 0.19 kcal/mol. With TGCCGCACGTGGAGGG the “relative binding free energy” value was -0.23 kcal/mol. For TGCCACACGTGTTGTT, the “relative binding free energy” value was 0.1 kcal/mol. TTGAGCACGTGATACT was tested, and the “relative binding free energy” value was 0.09 kcal/mol. With TAGAGCACGTGTTATG the “relative binding free energy” value was -0.06 kcal/mol. In the case of CGTGTCACGTGTTGTG, the “relative binding free energy” value is reported as 0.14 kcal/mol. With TGTAGCACGTGGAAGT the “relative binding free energy” value was -0.13 kcal/mol. With AAAGGCACGTGAGTGC the “relative binding free energy” value was 0.19 kcal/mol. TGGTACACGTGCTTTT was tested, and the “relative binding free energy” value was 0.03 kcal/mol. In the case of TTTGTCACGTGGCTTC, the “relative binding free energy” value is reported as 0.01 kcal/mol. GGTAGCACGTGAAATG was tested, and the “relative binding free energy” value was 0.14 kcal/mol. With GGTAACACGTGAGGGG the “relative binding free energy” value was 0.22 kcal/mol. In the case of GGCCACACGTGTGGTG, the “relative binding free energy” value is reported as 0.15 kcal/mol. With GTATTCACGTGGGTTG the “relative binding free energy” value was 0.18 kcal/mol. With GCCTTCACGTGGTAGT the “relative binding free energy” value was 0.3 kcal/mol. With TGAAGCACGTGCTGTG the “relative binding free energy” value was -0.15 kcal/mol. ATAATCACGTGCGTTG was tested, and the “relative binding free energy” value was 0.19 kcal/mol. For GCGTACACGTGGGCTT, the “relative binding free energy” value was 0.12 kcal/mol. With CAGCGCACGTGGTGGG the “relative binding free energy” value was -0.19 kcal/mol. TGGCTCACGTGTGTAG was tested, and the “relative binding free energy” value was 0.32 kcal/mol. In the case of TATATCACGTGTAGTC, the “relative binding free energy” value is reported as 0.07 kcal/mol. For GGTTTCACGTGGGACT, the “relative binding free energy” value was 0.28 kcal/mol. TCGTTCACGTGGGGTT was tested, and the “relative binding free energy” value was 0.14 kcal/mol. With ATAGTCACGTGATATT the “relative binding free energy” value was 0.17 kcal/mol. For ATTATCACGTGTGGTG, the “relative binding free energy” value was 0.19 kcal/mol. For TTTGCCACGTGGTTTT, the “relative binding free energy” value was -0.16 kcal/mol. In the case of AGGGTCACGTGCCTTG, the “relative binding free energy” value is reported as -0.09 kcal/mol. With GGTAGCACGTGGGATC the “relative binding free energy” value was -0.22 kcal/mol. GTTAACACGTGCGTTT was tested, and the “relative binding free energy” value was -0.09 kcal/mol. TGGGCCACGTGTTTAT was tested, and the “relative binding free energy” value was 0.05 kcal/mol. For ATCGTCACGTGGGGAA, the “relative binding free energy” value was 0 kcal/mol. With GGTTTCACGTGGCTTG the “relative binding free energy” value was 0.26 kcal/mol. For TCTTGCACGTGTGAGG, the “relative binding free energy” value was 0.15 kcal/mol.
